Measured values: the supplement of paper PMC8728848
The other results are listed elsewhere or left out.

Tests used:
Test in all cases: glycan array binding signal (z-score within array); higher = stronger binding
Conditions in all cases: glycan notation: IUPAC condensed, linker removed
[1] = target: Fuc(a1-2)Gal
Procedure, shortened: (§1)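 Glycan array data came from 3228 arrays in the Consortium for Functional Glycomics database, and only arrays with an available protein sequence were kept. Glycan names were put into IUPAC-condensed notation, and columns mapping to the same glycan were averaged. The binding signal is a within-array Z-score, averaged across arrays of one protein sequence run at different concentrations or buffers and across linkers. A negative Z-score can be read as non-binding.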

[2] = target: Fuc(a1-2)Gal(b1-3)GalNAc
Procedure, shortened: as §1

[3] = target: Fuc(a1-2)Gal(b1-3)GalNAc(b1-3)Gal
Procedure, shortened: as §1

[4] = target: Fuc(a1-2)Gal(b1-3)GalNAc(b1-3)Gal(a1-4)Gal(b1-4)Glc
Procedure, shortened: as §1

[5] = target: Fuc(a1-2)Gal(b1-3)GalNAc(b1-4)[Neu5Ac(a2-3)]Gal(b1-4)Glc
Procedure, shortened: as §1

[6] = target: Fuc(a1-2)Gal(b1-3)GlcNAc
Procedure, shortened: as §1

[7] = target: Fuc(a1-2)Gal(b1-3)GlcNAc(b1-3)Gal(b1-4)Glc
Procedure, shortened: as §1

[8] = target: Fuc(a1-2)Gal(b1-3)[Fuc(a1-4)]GlcNAc
Procedure, shortened: as §1

[9] = target: Fuc(a1-2)Gal(b1-4)Glc
Procedure, shortened: as §1

[10] = target: Fuc(a1-2)Gal(b1-4)GlcNAc
Procedure, shortened: as §1

[11] = target: Fuc(a1-2)Gal(b1-4)GlcNAc(b1-3)Gal(b1-4)GlcNAc
Procedure, shortened: as §1

[12] = target: Fuc(a1-2)Gal(b1-4)GlcNAc(b1-3)Gal(b1-4)GlcNAc(b1-3)Gal(b1-4)GlcNAc
Procedure, shortened: as §1

[13] = target: Fuc(a1-2)Gal(b1-4)[Fuc(a1-3)]GlcNAc
Procedure, shortened: as §1

[14] = target: Fuc(a1-2)Gal(b1-4)[Fuc(a1-3)]GlcNAc(b1-3)Gal(b1-4)[Fuc(a1-3)]GlcNAc
Procedure, shortened: as §1

[15] = target: Fuc(a1-2)Gal(b1-4)[Fuc(a1-3)]GlcNAc(b1-3)Gal(b1-4)[Fuc(a1-3)]GlcNAc(b1-3)Gal(b1-4)[Fuc(a1-3)]GlcNAc
Procedure, shortened: as §1

[16] = target: Fuc(a1-2)GlcNAc
Procedure, shortened: as §1

[17] = target: Fuc(a1-2)[Gal(a1-3)]Gal
Procedure, shortened: as §1

[18] = target: Fuc(a1-2)[Gal(a1-3)]Gal(b1-3)GlcNAc
Procedure, shortened: as §1

[19] = target: Fuc(a1-2)[Gal(a1-3)]Gal(b1-4)Glc
Procedure, shortened: as §1

[20] = target: Fuc(a1-2)[Gal(a1-3)]Gal(b1-4)GlcNAc
Procedure, shortened: as §1

[21] = target: Fuc(a1-2)[Gal(a1-3)]Gal(b1-4)[Fuc(a1-3)]GlcNAc
Procedure, shortened: as §1

[22] = target: Fuc(a1-2)[Gal(a1-4)]Gal(b1-4)GlcNAc
Procedure, shortened: as §1

[23] = target: Fuc(a1-2)[GalNAc(a1-3)]Gal
Procedure, shortened: as §1

[24] = target: Fuc(a1-2)[GalNAc(a1-3)]Gal(b1-3)GlcNAc
Procedure, shortened: as §1

[25] = target: Fuc(a1-2)[GalNAc(a1-3)]Gal(b1-4)Glc
Procedure, shortened: as §1

[26] = target: Fuc(a1-2)[GalNAc(a1-3)]Gal(b1-4)GlcNAc
Procedure, shortened: as §1

[27] = target: Fuc(a1-2)[GalNAc(a1-3)]Gal(b1-4)[Fuc(a1-3)]GlcNAc
Procedure, shortened: as §1

[28] = target: Fuc(a1-2)[GalNAc(a1-4)]Gal(b1-4)GlcNAc
Procedure, shortened: as §1

[29] = target: Fuc(a1-2)[GalNAc(b1-3)]Gal
Procedure, shortened: as §1

[30] = target: Fuc(a1-3)GlcNAc
Procedure, shortened: as §1

[31] = target: Fuc(a1-3)[Gal(b1-4)]GlcNAc
Procedure, shortened: as §1

[32] = target: Fuc(a1-3)[Gal(b1-4)]GlcNAc(b1-4)Gal(b1-4)[Fuc(a1-3)]GlcNAc
Procedure, shortened: as §1

[33] = target: Fuc(a1-3)[Gal(b1-4)]GlcNAc(b1-4)Gal(b1-4)[Fuc(a1-3)]GlcNAc(b1-4)Gal(b1-4)[Fuc(a1-3)]GlcNAc
Procedure, shortened: as §1

[34] = target: Fuc(a1-3)[Gal3S(b1-4)]GlcNAc
Procedure, shortened: as §1

[35] = target: Fuc(a1-3)[GalNAc(b1-4)]GlcNAc
Procedure, shortened: as §1

[36] = target: Fuc(a1-4)GlcNAc
Procedure, shortened: as §1

[37] = target: Fuc(b1-3)GlcNAc
Procedure, shortened: as §1

[38] = target: Gal(a1-2)Gal
Procedure, shortened: as §1

[39] = target: Gal(a1-3)Gal
Procedure, shortened: as §1

[40] = target: Gal(a1-3)Gal(b1-3)GlcNAc
Procedure, shortened: as §1

[41] = target: Gal(a1-3)Gal(b1-4)Glc
Procedure, shortened: as §1

[42] = target: Gal(a1-3)Gal(b1-4)GlcNAc
Procedure, shortened: as §1

[43] = target: Gal(a1-3)Gal(b1-4)[Fuc(a1-3)]GlcNAc
Procedure, shortened: as §1

[44] = target: Gal(a1-3)GalNAc
Procedure, shortened: as §1

[45] = target: Gal(a1-3)[Gal(a1-4)]Gal(b1-4)GlcNAc
Procedure, shortened: as §1

B1: PMA (Polygonatum multiflorum) (protein)
chain: LLTTTLFVFISSTRSLASTNVLYSDVGNAILNAKESLIYGDYRLDMQSDCNLVLYNKAAPYWASGTRWSWGGNCHLNLQSNGELVMYAYLGRTRIAIWRSGIISATGSYALVLKYDGALHVHGPSLWSTNATGPTTPTTASWSIDSTLWSGDVATIGPTIANGDYKLELLDTCNLTLSNTKTGQVLWYTNTTDWVHDCYVNIEGNGELKIKYLGGATLWSNKVGAGYTNNYVLGLRPDGKLDTYNAPIWSPTIGPGVHVAPAVYNASSNAVAAEGNGEKIAMVTGRAKNST
glycan array binding signal (z-score) [1]: -0.247 | glycan array binding signal (z-score) [2]: -0.246 | glycan array binding signal (z-score) [3]: -0.24 | glycan array binding signal (z-score) [4]: -0.24 | glycan array binding signal (z-score) [5]: -0.237 | glycan array binding signal (z-score) [6]: -0.249 | glycan array binding signal (z-score) [7]: -0.225 | glycan array binding signal (z-score) [8]: -0.265 | glycan array binding signal (z-score) [9]: -0.26 | glycan array binding signal (z-score) [10]: -0.236 | glycan array binding signal (z-score) [11]: -0.247 | glycan array binding signal (z-score) [12]: -0.254 | glycan array binding signal (z-score) [13]: -0.232 | glycan array binding signal (z-score) [14]: -0.223 | glycan array binding signal (z-score) [15]: -0.235 | glycan array binding signal (z-score) [16]: -0.239 | glycan array binding signal (z-score) [17]: -0.253 | glycan array binding signal (z-score) [18]: -0.256 | glycan array binding signal (z-score) [19]: -0.26 | glycan array binding signal (z-score) [20]: -0.247 | glycan array binding signal (z-score) [21]: -0.233 | glycan array binding signal (z-score) [22]: -0.236 | glycan array binding signal (z-score) [23]: -0.24 | glycan array binding signal (z-score) [24]: -0.246 | glycan array binding signal (z-score) [25]: -0.249 | glycan array binding signal (z-score) [26]: -0.243 | glycan array binding signal (z-score) [27]: -0.236 | glycan array binding signal (z-score) [28]: -0.24 | glycan array binding signal (z-score) [29]: 0.34 | glycan array binding signal (z-score) [30]: -0.218 | glycan array binding signal (z-score) [31]: -0.226 | glycan array binding signal (z-score) [32]: -0.221 | glycan array binding signal (z-score) [33]: -0.259 | glycan array binding signal (z-score) [34]: -0.245 | glycan array binding signal (z-score) [35]: -0.248 | glycan array binding signal (z-score) [36]: -0.26 | glycan array binding signal (z-score) [37]: -0.226 | glycan array binding signal (z-score) [38]: -0.237 | glycan array binding signal (z-score) [39]: -0.236 | glycan array binding signal (z-score) [40]: -0.254 | glycan array binding signal (z-score) [41]: -0.238 | glycan array binding signal (z-score) [42]: -0.237 | glycan array binding signal (z-score) [43]: -0.24 | glycan array binding signal (z-score) [44]: -0.247 | glycan array binding signal (z-score) [45]: -0.255
